This is an account of results in ChEMBL document CHEMBL1143136 (J Med Chem, 2008).

Molecules are shown by their SMILES. Calls of active or inactive are those of the source. No cut-off for these calls is given here. Where a SMILES comes first, the peptide text is derived from it. The star is where a group is joined. Trt = c1ccc(C(c2ccccc2)(c2ccccc2)*)cc1

In one assay the target is Kinesin-like protein KIF11 (Homo sapiens, UniProt P52732). The assay is described as follows: Inhibition of human Eg5 basal ATPase activity.
Conditions: not given
With `O=C(O)C(CSC(c1ccccc1)(c1ccccc1)c1ccccc1)/N=C/c1cccs1` (configuration not stated), the outcome was inactive.

On to `CC(C)(O)CC(c1ccccc1)(c1ccccc1)c1ccccc1`, for which the result was inactive.

Turning to `N[C@@H](CSC1(c2ccc(Cl)cc2)c2ccccc2-c2ccccc21)C(=O)O`, the result was inactive.

In the case of `ClC(c1ccccc1)(c1ccccc1)c1ccccc1`, the result was inactive.

As for `N[C@@H](CSC(c1ccccc1)c1ccccc1)C(=O)O`, the outcome was inactive.

With `CC(C)(C)OC(=O)NC(CSC(c1ccccc1)(c1ccccc1)c1ccccc1)C(=O)O` (configuration not stated), the outcome was inactive.

Turning to `O=C(O)C(CSC(c1ccccc1)(c1ccccc1)c1ccccc1)NC(c1ccccc1)(c1ccccc1)c1ccccc1` (configuration not stated), the result was inactive.

In the case of `COC(c1ccccc1)(c1ccccc1)c1ccccc1`, the outcome was inactive.

Take `c1ccc(CSC(c2ccccc2)(c2ccccc2)c2ccccc2)cc1`: the outcome was inactive.

For `COC(=O)CSC(c1ccccc1)(c1ccccc1)c1ccccc1`, the result was inactive.

In the case of `NC(c1ccccc1)(c1ccccc1)c1ccccc1`, the result was inactive.

For `NCCCCSC(c1ccccc1)(c1ccccc1)c1ccccc1`, the result was inactive.

Regarding `BrC(c1ccccc1)(c1ccccc1)c1ccccc1`, the result was inactive.

On to `O=C(O)C(CSC(c1ccccc1)(c1ccccc1)c1ccccc1)NC(c1ccccc1)c1ccccc1` (configuration not stated), for which the outcome was inactive.

Consider `O=C(O)CCSC(c1ccccc1)(c1ccccc1)c1ccccc1`, for which the result was inactive.

Regarding `Nc1ccc(C(c2ccccc2)(c2ccccc2)c2ccccc2)cc1`, the result was inactive.

Regarding `CC(=O)NC(CSC(c1ccccc1)(c1ccccc1)c1ccccc1)C(=O)O` (configuration not stated), the result was inactive.

For the compound `CC(c1ccccc1)(c1ccccc1)c1ccccc1`, the result was inactive.

Turning to `OCCSC(c1ccccc1)(c1ccccc1)c1ccccc1`, the outcome was inactive.

With `CC(=O)CCSC(c1ccccc1)(c1ccccc1)c1ccccc1`, the outcome was inactive.

On to `NCCCSC(c1ccccc1)(c1ccccc1)c1ccccc1`, for which the outcome was inactive.

In the case of `CCC(c1ccccc1)(c1ccccc1)c1ccccc1`, the result was inactive.

With `CC(=O)N[C@@H](CSC1(c2ccccc2)c2ccccc2-c2ccccc21)C(=O)O`, the outcome was inactive.

As to `Cc1ccccc1SC(c1ccccc1)(c1ccccc1)c1ccccc1`, the result was inactive.

Turning to `CC(=O)SC(c1ccccc1)(c1ccccc1)c1ccccc1`, the outcome was inactive.

As for `SC(c1ccccc1)(c1ccccc1)c1ccccc1`, the outcome was inactive.

In the case of `CCSC(c1ccccc1)(c1ccccc1)c1ccccc1`, the outcome was inactive.

As for `COC(=O)CCSC(c1ccccc1)(c1ccccc1)c1ccccc1`, the result was inactive.

Take `OC(c1ccccc1)(c1ccccc1)c1ccccc1`: the result was inactive.

The assay is the same for the next values; noted with them: read-out: Ki app.
In the case of `Cc1ccc(C(SC[C@H](N)C(=O)O)(c2ccccc2)c2ccccc2)cc1`, the Ki is 100 nM.

Turning to `N[C@@H](CSC(c1ccccc1)(c1ccccc1)c1ccccc1)C(=O)NCC(=O)O`, the Ki stood at 1500 nM.

Regarding `N[C@@H](CSC(c1ccccc1)(c1ccccc1)c1ccc(F)cc1)C(=O)O`, the Ki worked out at 150 nM.

On to `N[C@@H](CSC(c1ccccc1)(c1ccccc1)c1ccccc1)C(=O)OC(c1ccccc1)c1ccccc1`, for which the Ki was 7000 nM.

On to `N[C@@H](CSC(c1ccccc1)(c1ccc(CO)cc1)c1ccc(CO)cc1)C(=O)O`, for which the Ki came out at 23000 nM.

For `N[C@@H](CSC(c1ccccc1)(c1ccccc1)c1ccc2ccccc2c1)C(=O)O`, the Ki was 200 nM.

For `N[C@@H](CSC1(c2ccc(F)cc2)c2ccccc2-c2ccccc21)C(=O)O`, the Ki worked out at 6000 nM.

`N[C@@H](CSC1(c2cccc3ccccc23)c2ccccc2-c2ccccc21)C(=O)O`: the Ki is 900 nM.

As to `N[C@@H](COC(c1ccccc1)(c1ccccc1)c1ccccc1)C(=O)O`, the Ki came out at 750 nM.

On to `COC(=O)[C@H](CC(C)C)NC(=O)[C@@H](N)CSC(c1ccccc1)(c1ccccc1)c1ccccc1` (H-Cys(Trt)-Leu-OMe), for which the Ki was determined as 1750 nM.

Take `COC(=O)[C@@H](NC(=O)[C@@H](N)CSC(c1ccccc1)(c1ccccc1)c1ccccc1)C(C)C` (H-Cys(Trt)-Val-OMe): the Ki turned out to be 600 nM.

In the case of `CCC(SC[C@H](N)C(=O)O)(c1ccccc1)c1ccccc1`, the Ki is 450 nM.

`Cc1ccc(C(SC[C@H](N)C(=O)O)(c2ccccc2)c2ccc(C)cc2)cc1`: the Ki is 2000 nM.

For `COc1ccc(C(SC[C@H](N)C(=O)O)(c2ccccc2)c2ccc(OC)cc2)cc1`, the Ki is 600 nM.

Consider `COC(=O)[C@@H](N)CSC(c1ccccc1)(c1ccccc1)c1ccccc1`, for which the Ki was 120 nM.

As to `NCCSC(c1ccccc1)(c1ccccc1)c1ccccc1`, the Ki came out at 150 nM.

Take `N[C@@H](CSC(c1ccccc1)(c1ccccc1)c1ccc(Br)cc1)C(=O)O`: the Ki turned out to be 250 nM.

On to `N[C@@H](CSC(c1ccccc1)(c1ccccc1)c1ccc(Cl)cc1)C(=O)O`, for which the Ki was determined as 200 nM.

As for `CC(C)C(SC[C@H](N)C(=O)O)(c1ccccc1)c1ccccc1`, the Ki was determined as 150 nM.

With `CC(NC(=O)[C@@H](N)CSC(c1ccccc1)(c1ccccc1)c1ccccc1)C(=O)O` (some centres not stated), the Ki worked out at 1500 nM.

`CCCCC(SC[C@H](N)C(=O)O)(c1ccccc1)c1ccccc1`: the Ki came out at 175 nM.

Take `N[C@@H](CSC(c1ccccc1)(c1ccc(-c2ccccc2)cc1)c1ccc(-c2ccccc2)cc1)C(=O)O`: the Ki worked out at 35000 nM.

In the case of `N[C@@H](CSC(c1ccccc1)(c1ccccc1)c1cccc2ccccc12)C(=O)O`, the Ki stood at 4000 nM.

On to `CC(SC[C@H](N)C(=O)O)(c1ccccc1)c1ccccc1`, for which the Ki stood at 2500 nM.

Regarding `N[C@@H](CSC(c1ccccc1)(c1ccccc1)c1ccccc1)C(=O)N[C@@H](CSC(c1ccccc1)(c1ccccc1)c1ccccc1)C(=O)O` (H-Cys(Trt)-Cys(Trt)-OH), the Ki was 6750 nM.

In the case of `N[C@@H](CSC(c1ccccc1)(c1ccccc1)c1ccc(CO)cc1)C(=O)O`, the Ki amounted to 14000 nM.

Turning to `N[C@@H](CSC(c1ccccc1)(c1ccccc1)C1CCCCC1)C(=O)O`, the Ki was found to be 175 nM.

With `N[C@@H](CSC(c1ccccc1)(c1ccccc1)c1ccc2c(c1)OCO2)C(=O)O`, the Ki is 200 nM.

As for `CC(C)(SC(c1ccccc1)(c1ccccc1)c1ccccc1)C(N)C(=O)O` (configuration not stated), the Ki was determined as 5230 nM.

Take `Cc1ccc(C(SC[C@H](N)C(=O)O)(c2ccc(C)cc2)c2ccc(C)cc2)cc1`: the Ki was 1000 nM.

Regarding `N[C@@H](CSC(c1ccccc1)(c1ccccc1)c1ccc(O)cc1)C(=O)O`, the Ki turned out to be 23000 nM.

With `N[C@@H](CSC1(c2ccccc2)c2ccccc2-c2ccccc21)C(=O)O`, the Ki was 1500 nM.

Take `Cc1ccc(C2(SC[C@H](N)C(=O)O)c3ccccc3-c3ccccc32)cc1`: the Ki turned out to be 13000 nM.
